The target in experiment [1] is T1, Mitofusin 2, full length, with C-terminal Twin-Strep tag (Mfn2-Strep) (human), O95140.
T1 chain: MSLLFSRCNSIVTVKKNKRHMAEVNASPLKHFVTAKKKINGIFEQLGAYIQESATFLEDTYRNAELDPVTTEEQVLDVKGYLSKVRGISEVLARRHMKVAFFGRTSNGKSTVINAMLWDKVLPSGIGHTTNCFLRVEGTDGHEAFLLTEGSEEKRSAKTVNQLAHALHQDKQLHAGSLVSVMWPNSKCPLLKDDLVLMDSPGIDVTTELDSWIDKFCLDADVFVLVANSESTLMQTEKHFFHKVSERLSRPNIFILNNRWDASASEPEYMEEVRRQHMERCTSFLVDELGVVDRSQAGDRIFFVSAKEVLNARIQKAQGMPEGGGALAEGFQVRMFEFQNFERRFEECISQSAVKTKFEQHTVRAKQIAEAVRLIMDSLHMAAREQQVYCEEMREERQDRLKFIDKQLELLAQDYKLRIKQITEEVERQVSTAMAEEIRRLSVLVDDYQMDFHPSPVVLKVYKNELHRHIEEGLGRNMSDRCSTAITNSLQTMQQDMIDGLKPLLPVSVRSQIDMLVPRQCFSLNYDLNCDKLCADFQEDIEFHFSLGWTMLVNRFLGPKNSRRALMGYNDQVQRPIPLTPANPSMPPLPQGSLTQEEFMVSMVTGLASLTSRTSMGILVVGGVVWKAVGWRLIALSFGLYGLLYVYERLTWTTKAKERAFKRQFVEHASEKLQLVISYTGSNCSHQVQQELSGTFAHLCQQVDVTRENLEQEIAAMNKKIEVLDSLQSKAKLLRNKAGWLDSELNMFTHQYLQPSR
The experiment in a line: cross-linking; purified complex cross-linked with BS3 or BS(PEG)5, lysine-lysine cross-links identified by mass spectrometry; both purified. The conditions noted are these: remark: other sources report otherwise.

Amino acid sequences for entries named in this document (tags omitted). Residues count along the entry.
UniProt O60313, residues 253-960: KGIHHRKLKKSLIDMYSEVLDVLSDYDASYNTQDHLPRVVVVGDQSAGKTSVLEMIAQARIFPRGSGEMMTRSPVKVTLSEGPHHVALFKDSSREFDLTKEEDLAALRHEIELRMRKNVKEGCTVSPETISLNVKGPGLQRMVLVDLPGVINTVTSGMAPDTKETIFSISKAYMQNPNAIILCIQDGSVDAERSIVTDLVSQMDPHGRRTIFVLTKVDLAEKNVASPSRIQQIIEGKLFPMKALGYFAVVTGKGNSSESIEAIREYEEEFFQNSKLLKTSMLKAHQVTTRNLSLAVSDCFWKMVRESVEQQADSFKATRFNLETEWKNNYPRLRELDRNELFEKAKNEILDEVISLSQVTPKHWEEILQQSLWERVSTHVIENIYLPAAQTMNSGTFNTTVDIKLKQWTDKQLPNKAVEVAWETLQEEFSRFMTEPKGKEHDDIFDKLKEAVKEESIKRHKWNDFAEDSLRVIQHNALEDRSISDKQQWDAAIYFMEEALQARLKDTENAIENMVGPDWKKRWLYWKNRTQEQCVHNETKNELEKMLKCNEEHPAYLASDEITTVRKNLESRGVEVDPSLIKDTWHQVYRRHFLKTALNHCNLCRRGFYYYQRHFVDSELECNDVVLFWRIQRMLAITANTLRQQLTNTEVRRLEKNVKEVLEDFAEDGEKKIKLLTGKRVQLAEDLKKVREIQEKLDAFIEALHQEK

In experiment [2] the target is T1, Mitofusin 2, full length, with …. The experiment in a line: pull-down; GDN extracts of P. pastoris expressing or coexpressing the proteins; Strep-tagged Opa1 or Mfn2 held on StrepTactin XT 4Flow resin in a spin column, 4 °C, 25 mM Hepes, 150 mM NaCl, pH 8.0, washes with 0.1% GDN, elution with 50 mM biotin; Western blot; also with GTPγS, GMPPCP or GDP added to the lysates (no effect on coelution). As to conditions: remark: other sources report otherwise.

Experiment [3] deals with Strep-Opa1, purified, used at 2 uM in the binding test with purified SLC25A46-His (human) (UniProt O60313). As to the kind of experiment: pull-down; purified SLC25A46-His (WT or mutant) incubated with 2 μM Strep-Opa1, StrepTactin binding and elution; input and elution analysed by Western blotting; both purified. A general note: Immunoblotting shows a protein as a band on a membrane.

For experiment [4], the target named is T2, Mfn2 lacking the two transmembrane segments (Mfn2 (ΔTM)-Strep) (human) (UniProt O95140).
T2 sequence: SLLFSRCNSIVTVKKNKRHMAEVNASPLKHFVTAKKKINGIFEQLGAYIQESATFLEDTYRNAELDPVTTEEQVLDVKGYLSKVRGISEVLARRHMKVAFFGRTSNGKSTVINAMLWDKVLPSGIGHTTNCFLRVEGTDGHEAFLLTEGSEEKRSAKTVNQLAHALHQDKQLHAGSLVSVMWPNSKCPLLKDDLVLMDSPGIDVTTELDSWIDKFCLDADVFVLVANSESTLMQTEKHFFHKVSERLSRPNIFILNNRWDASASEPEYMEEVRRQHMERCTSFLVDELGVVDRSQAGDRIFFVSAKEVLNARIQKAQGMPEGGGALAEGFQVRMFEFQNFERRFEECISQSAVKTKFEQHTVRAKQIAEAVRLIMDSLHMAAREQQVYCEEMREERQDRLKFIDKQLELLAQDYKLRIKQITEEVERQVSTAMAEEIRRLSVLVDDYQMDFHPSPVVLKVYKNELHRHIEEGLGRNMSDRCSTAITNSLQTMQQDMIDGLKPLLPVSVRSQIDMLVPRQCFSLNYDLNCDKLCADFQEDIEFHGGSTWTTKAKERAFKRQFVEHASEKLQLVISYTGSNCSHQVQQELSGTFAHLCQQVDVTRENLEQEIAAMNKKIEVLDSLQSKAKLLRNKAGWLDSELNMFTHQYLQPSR
As to the kind of experiment: pull-down; GDN extracts of P. pastoris expressing or coexpressing the proteins; Strep-tagged Opa1 or Mfn2 held on StrepTactin XT 4Flow resin in a spin column, 4 °C, 25 mM Hepes, 150 mM NaCl, pH 8.0, washes with 0.1% GDN, elution with 50 mM biotin; Western blot; also with GTPγS, GMPPCP or GDP added to the lysates (no effect on coelution).

For experiment [5], the target named is T3, Mitofusin 2, full length, with C-terminal Twin-Strep tag (Mfn2-Strep) (human) (UniProt O95140).
T3 sequence: T1 chain
The description is as above.

Experiment [6] has as its target T4, Solute carrier family 25 member A46 with C-terminal deca-histidine (SLC25A46-His), wild type (human), Q96AG3.
T4 chain: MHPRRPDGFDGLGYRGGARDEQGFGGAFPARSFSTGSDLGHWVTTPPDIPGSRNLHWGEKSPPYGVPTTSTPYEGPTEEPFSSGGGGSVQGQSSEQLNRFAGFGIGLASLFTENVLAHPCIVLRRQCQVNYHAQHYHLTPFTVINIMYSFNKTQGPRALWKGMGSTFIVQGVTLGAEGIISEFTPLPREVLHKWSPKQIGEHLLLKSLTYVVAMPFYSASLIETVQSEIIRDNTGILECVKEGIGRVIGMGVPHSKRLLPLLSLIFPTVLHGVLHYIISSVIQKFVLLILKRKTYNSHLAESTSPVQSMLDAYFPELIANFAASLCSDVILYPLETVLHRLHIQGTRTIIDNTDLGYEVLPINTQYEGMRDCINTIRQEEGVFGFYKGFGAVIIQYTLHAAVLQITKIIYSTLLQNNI
The experiment in a line: pull-down; GDN extracts of P. pastoris; SLC25A46-His held on Ni-NTA resin; binding buffer with 80 mM and elution buffer with 500 mM imidazole; otherwise as the StrepTactin experiment. As to conditions: remark: other sources report otherwise.

Results are given in words; binding and its absence hold for the method and conditions named. For some of these results: Binding seen in cells or lysates may run through a third protein. Some entries that bind do so weakly or less than the wild type. Where a sequence is shown, tags or fusion partners need not be part of it.

B1: Solute carrier family 25 member A46 with C-terminal deca-histidine (SLC25A46-His), wild type, Q96AG3 1-418 (protein)
chain: T4 chain
As to B1, the binding result in experiment [1] and in experiment [2] was “binds” each time.

B2: Solute carrier family 25 member A46 with C-terminal deca-histidine (SLC25A46-His), wild type (natural protein, human, UniProt Q96AG3 1-418, looked up)
chain: T4 chain
notes: SLC25A46, human; gene synthesized (GenScript), cloned into pPICZ A; C terminus fused to (G4S)3 linker, TEV cleavage site and deca-histidine; only a pPICZ A (P. pastoris) construct of SLC25A46 is described; also called WT SLC25A46; source: P. pastoris SMD1163, in GDN extract (lysate); also recombinantly expressed and purified; not shown: His10, C-terminal, kept
On to B2, for which the binding result in experiment [3] and in experiment [4] was “binds” each time.

B3: SLC25A46 (1-88)-MBP-His: residues 1 to 88 of SLC25A46 fused to MBP and His tag at the C terminus (domain or fragment, UniProt Q96AG3 1-88)
chain: MHPRRPDGFDGLGYRGGARDEQGFGGAFPARSFSTGSDLGHWVTTPPDIPGSRNLHWGEKSPPYGVPTTSTPYEGPTEEPFSSGGGGS
For the molecule B3, the binding result in experiment [5] was “no binding”.

B4: (Δ2-83)SLC25A46-His (domain or fragment, UniProt Q96AG3)
chain: MGGGGSVQGQSSEQLNRFAGFGIGLASLFTENVLAHPCIVLRRQCQVNYHAQHYHLTPFTVINIMYSFNKTQGPRALWKGMGSTFIVQGVTLGAEGIISEFTPLPREVLHKWSPKQIGEHLLLKSLTYVVAMPFYSASLIETVQSEIIRDNTGILECVKEGIGRVIGMGVPHSKRLLPLLSLIFPTVLHGVLHYIISSVIQKFVLLILKRKTYNSHLAESTSPVQSMLDAYFPELIANFAASLCSDVILYPLETVLHRLHIQGTRTIIDNTDLGYEVLPINTQYEGMRDCINTIRQEEGVFGFYKGFGAVIIQYTLHAAVLQITKIIYSTLLQNNI
Regarding B4, the binding entry in experiment [5] was “binds”.

B5: Mitofusin 2, full length, with C-terminal Twin-Strep tag (Mfn2-Strep), O95140 1-757 (protein)
chain: T1 chain
With B5, in experiment [6], the binding result was “binds”.

(Values after PMC11459905, “Identification of SLC25A46 interaction interfaces with mitochondrial membrane fusogens Opa1 and Mfn2” (The Journal of Biological Chemistry, 2024).)
